We go through 56 variants from the RNAGym collection of RNA variant scans (doi:10.7554/elife.90254).

The source gives no read counts; variants with many changes may rest on few reads.

The chains are these.
B1: LINE1-mini (parent)
chain: GGCAGAGCUCAACACAGCGUGGCAAAGUGGCUGUGGCUAGACUGCC

The variants in this series derive from B1. In words: self-cleavage, relative activity (ratio to wild type); higher = more cleavage; in vitro, sequencing; the parent is a self-cleaving ribozyme.
Take GGCUGAGCUCAACACAGCGUGGCAAAGUGGCUGUGCCAAGACUGCC: the self-cleavage was found to be 0.1.

GGCUGAGCACAACACAGCGUGGCAAAGUGGCUAUGGCUAGACUGCC: the self-cleavage was 0.27.

As for GGCUGAGCUCAACACAGCGUGGCAAAGUGGCUCUGGCUAGACUGAC, the self-cleavage was 0.02.

With GGCAAGGCUCAACCCAGCGUGGCUAAGUGGCUCUGGGUAGACUGCC, the self-cleavage was determined as 0.01.

With GGCUGAGCUCAACACAGCGUGGCAAAGUCGCUGUGGCUAGACUGGC, the self-cleavage came out at 0.03.

On to GGCAACGCUAAACACAGCGUGGCAAAGUGGCGGUGGCUAGACUGCC, for which the self-cleavage stood at 0.04.

For the variant GGCUGAGCUCAACACAGCGUGGCAAAGCGCUUGUGGCUUGACUGCC, the self-cleavage was 0.15.

Regarding GGCUGAGCUCAACACAGCGUGGCAAAGUGCCGGUGGCUAGACUGCC, the self-cleavage turned out to be 0.04.

Consider GGCUGAGCUCAACACACCGAGGCAAAAUGGCUCUGGCUAGACUGCC, for which the self-cleavage amounted to 0.02.

Regarding GGCAACGCUCAACACAGCGUGGCAAAGUGGCUUUGGCUAGACUGCC, the self-cleavage was found to be 0.04.

In the case of GGCAACGCUCAACAGAGCGUGGCAAAGUGGCUGUGGCUAGACUGUC, the self-cleavage came to 0.03.

With GGCUGAGCUCAACACAGCUUGGCAAAGUGUCUGUGGCUAGACUGCC, the self-cleavage amounted to 0.06.

Regarding GGCUGAGCUCAACACAGCUUGGCAAAGUGACUGUGGCUAGACUGCC, the self-cleavage was found to be 0.05.

Regarding GGCUGAGCUCAACACAGCGUGGCAAAGGGGCUCUGGCUAGACUGCC, the self-cleavage amounted to 0.02.

Turning to GGCUGAGCUCAACACAGCGUAGCAAAGUGGCUGUGACUAGAUUGCC, the self-cleavage amounted to 0.02.

GGCUGAGCUCAACACAGCGUGGCAAAGUGGCGGUGACUGAACCCCC: the self-cleavage was found to be 0.02.

GGCUGAGCACCACACAGGGUGGCAAAGUGGCUGUGCCUAGCCUGCC: the self-cleavage was determined as 0.02.

For GGCAACCCUCAACACCGCGUGGCAAAGUGGCUGUGGCUUGACUGCC, the self-cleavage was 0.02.

Consider GGCAAUGCUCAACACAGCGUGUCAAAGUGGCUGUGGCUAGACUGAC, for which the self-cleavage turned out to be 0.15.

Consider GGCUGAGCACAACACUGCGUGGCAAAGUGGCUGUGGCUAGACUGCC, for which the self-cleavage is 0.07.

For GGCUGAGCUCAACACAGCGUAGCAAAGUGGCUAUGUCUAGACUGCC, the self-cleavage was determined as 0.13.

Regarding GGCUGAGCUCAACACAGCGUGGCAAAGCGGCUGUGGCAAGACUGAC, the self-cleavage is 0.02.

Regarding GGCAAAGCUCCACACAGCGUGACAAAAUGGCUGUGGCUAGCCUGCC, the self-cleavage is 0.02.

As for GGCAAUGCUCAACACAGCGUGACAAAGUGGCUGUGGCUAGAAUGCC, the self-cleavage was 0.04.

Take GGCUGAGCUCAACACAGCGUGGCAAAAUGGCUGUAGCUAGAUUGCC: the self-cleavage was 0.

In the case of GGCAAAGCUCCACACUGCGUGGCAAAGUGGCUGUCGAAAGACUGCC, the self-cleavage was determined as 0.

On to GGCUGAGCUCAACACAGCUUGGCAAAGUGGCUGUUGCCAGACUGCC, for which the self-cleavage is 0.05.

On to GGCUGAGCUCAACACAGCGAGGUAAAGUGGGUGUGGAUCGACUGCC, for which the self-cleavage was 0.

In the case of GGCUGAGCUCAACACAGCAUGGCAAAGUCGCUGUGGCUAGACUGCC, the self-cleavage was determined as 0.28.

GGCUGAGCUCAACACAGCGUGCCAAAGUAGCUGUAGCUAGACUGCC: the self-cleavage came to 0.06.

Turning to GGCUGAGCUCAACACAGCGAGGCAAAGUGGCUGUGGCUAGACUGUC, the self-cleavage worked out at 0.06.

Consider GGCUGAGCUCAACACAGCGUGGCAAAGAGGCUGUGGCUCGCCUGCC, for which the self-cleavage came to 0.06.

Take GGCAACGCUCAACACAGCUUGGCAUAGUGGCUGUGGCUAGACUGCC: the self-cleavage came to 0.29.

With GGCUGAGCUCAACACAGCGUGGCAAAGUGGCUAUGGUUAGACUGCC, the self-cleavage was found to be 0.1.

Take GGCUGAGCUCAACACAGCGGGGCAAAGUUGCUGUGGCUAGACUGCC: the self-cleavage was determined as 0.92.

In the case of GGCAACGCUCAACACAGCGUGGCAAAGUGGCUGUGACUAGACUGCC, the self-cleavage is 0.08.

As for GGCUGAGCGCAACACAGCGAGGCGACGUGGCUGUGGCUAGACUGCC, the self-cleavage came out at 0.03.

As to GGCAAGGCUCAACACAGCGUGGCAAUGUGGCUGUGGCUAGACUGCC, the self-cleavage was 0.13.

For GGCUGAGCUCAACACAGCGUGGCAAAGUUGCUGUGGCUAGACUGGC, the self-cleavage worked out at 0.09.

In the case of GGCUGAGCCCAAAACAGCGUGUCAAAGUGGCUGUUGCUAAAUUGCC, the self-cleavage is 0.11.

For the variant GGCUGAGCUCAACACAGCGUGUCAAAGUGGCUUUGGCUAGACUGCC, the self-cleavage worked out at 0.07.

Regarding GGCUGAGCUCAACACAGCCUGGCAAAGUGGCUGUGGCUAGAAUGCC, the self-cleavage is 0.03.

As to GGCAAUGCUCAACACAGCGUGGCAAAGUGGCUGUGGCUAGACUGCA, the self-cleavage is 0.2.

Turning to GGCUGAGCUCAACACAGCGUAGAAGAGUGGCUGUGGCUAGACUGCC, the self-cleavage worked out at 0.13.

Regarding GGCAAGGCGCAACACUGCUUGGAAAAGUGGCUAUGGCUAGACUGCU, the self-cleavage came to 0.03.

Consider GGCUGAGCUCAACACAGCGUAGGAAAGUGUCUGUGGCUAGACUUCC, for which the self-cleavage was 0.03.

As for GGCUGAGCUCAACACAGCUUGGCAACGUGCCUAUCGCUGGACUACC, the self-cleavage is 0.03.

Turning to GGCAAAGCUCCACACAGCGUGGCAAAGUGACUGUGGCUAGACUGCC, the self-cleavage is 0.02.

Turning to GGCUGAGCUCAACACAGCGGGGCAAAGUGGCUGUGGGUAGACUGCC, the self-cleavage is 0.02.

Turning to GGCUGAGCUCAACACAGCGUGGCAAAGUGGCUGUGACUAGACGGCU, the self-cleavage amounted to 0.1.

For GGCUGAGCUCAACACAGCGUGGCAAAGUGGCUGUGGCUAGACAUCC, the self-cleavage amounted to 0.31.

For GGCUGAGCUCAACACAGCGUGACAAAGUGGCUGUGGCUAAACUGGC, the self-cleavage is 0.49.

Consider GGCUGAGCUCAACACAGCGUGGCAAAGUGGCAGUGGCUAGACUGCU, for which the self-cleavage is 0.16.

Take GGCUGAGCUCAACACAGCAUGGCAAAGUGGCUUUGGCUAGACUGCC: the self-cleavage amounted to 0.09.

For the variant GGCAAGGCUCAACACAGCAUGGCAAAGUGGCUGUGGCUAGACUGCC, the self-cleavage was 0.1.

For the variant GGCUGAGCUCAACACAGCGUGGCAAAGUGGCUGUGGCUAAACUGGC, the self-cleavage was 0.07.
